Consider 22 molecules from article PMC12136788.

This is one part of the list.

The chains are these.
T1: UNK ZnF1-6 (called full-length) (human, UniProt Q9C0B0 30-357)
T1 sequence: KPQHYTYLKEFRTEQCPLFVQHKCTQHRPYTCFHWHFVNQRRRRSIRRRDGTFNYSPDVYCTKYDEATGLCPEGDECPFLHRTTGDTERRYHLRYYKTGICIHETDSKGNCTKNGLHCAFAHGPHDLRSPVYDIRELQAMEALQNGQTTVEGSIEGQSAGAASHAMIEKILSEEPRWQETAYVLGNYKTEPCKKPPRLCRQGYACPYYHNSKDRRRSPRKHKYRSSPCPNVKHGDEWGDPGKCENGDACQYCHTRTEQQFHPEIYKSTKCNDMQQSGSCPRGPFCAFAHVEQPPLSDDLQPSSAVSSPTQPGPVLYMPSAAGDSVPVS

B1: chr5:141515046:141515147:-|3pUTR|ENSG00000131504|msi1_unk|FALSE|overlapping (ssRNA)
RNA: GGGAGUUCUACAGUCCGACGAUCAAAAAGAGAGAGAGAGAGAGGUGUGAGGGACAAAAUGCAAACCUAUUUCCCUUGCCUCAUAGGCUUCUGGGAUGUCAUCACCUCCAGUUUGUUGGUUUUGUUUCCAACUGUUAAUAAAGCCAACAGAGGAUUGAGCAUCA
B2: chr20:49372985:49374992:-|CDS|ENSG00000158445|control|control|control (ssRNA)
RNA: GGGAGUUCUACAGUCCGACGAUCCAUCUACACCACAGCAAGUGCUAAGACACCCCCCCGGUCUCCUGAGAAACACACAGCAAUAGCGUUCAACUUUGAGGCGGGUGUCCACCAGUACAUUGACGCAGACACAGAUGAUGAGGGCAACAGAGGAUUGAGCAUCA
B3: chr2:226864888:226864989:+|CDS|ENSG00000144468|unk|FALSE|unique (ssRNA)
RNA: GGGAGUUCUACAGUCCGACGAUCUGCUGAUGAUUGGCAUUUGUAUUUCAAUAUGGCAUCCAUGCUCUGGAAAGGAAUAAAUCUAGAAAGAAGACUGGGAAGUAGAUGGUUUGCCUAUGUUAUCACCGCAUUUUCUGUACUUACCAACAGAGGAUUGAGCAUCA
B4: chr8:122973292:122973393:+|3pUTR|ENSG00000178764|msi1|FALSE|unique (ssRNA)
RNA: GGGAGUUCUACAGUCCGACGAUCAGAGAUGGUCUCUCCCCAGCCAUGGGCCACCCUUGCCAGUGACUCCAAGUGGAACUACUUAGCUCGCGUGUGCCUGGAGGGUGCGGGAAGUCCAGCGACUCUCAGACGCACCUCCCAGAGCAACAGAGGAUUGAGCAUCA
B5: chr10:121957106:121957207:-|3pUTR|ENSG00000107672|msi1|total|mutant (ssRNA)
RNA: GGGAGUUCUACAGUCCGACGAUCUGUAUCGUACAUAUUGUAUGAUUCAACAUUUUUAAAGGCAGAUUGUUUUCCGUAAAAUGCCGCUUUUGACCGUUAAUAAAUUUGUCAUGGUUGUCUUUGAUUAAAGGAAACUCACCGCCACAACAGAGGAUUGAGCAUCA
B6: chr10:87746157:87746259:+|3pUTR|ENSG00000198682|unk|total|mutant (ssRNA)
RNA: GGGAGUUCUACAGUCCGACGAUCAACUGAAGACCAAAUCUCCGCAGGUAAAAGCAAUAUUCUUAUACAUUUCAUAAUAAAAUCCGCUCUAUGUAUUUUCUACUGCACCUGAGCAGGCAGGUCCCAGAUUUCUUAAGGCUUUGUCAACAGAGGAUUGAGCAUCA
B7: chr8:103427116:103427218:+|CDS|ENSG00000164934|unk|FALSE|bound_elsewhere (ssRNA)
RNA: GGGAGUUCUACAGUCCGACGAUCGUAUACUGGGAUUGAUCAUCACUGGAAAGAAGCUGUUUUUGCCACAUGUGGACAGCAAGUAGACAUUUGGGAUGAACAAAGAACUAAUCCUAUAUGUUCAAUGACCUGGGGAUUUGACAGCAACAGAGGAUUGAGCAUCA
B8: chr17:82057505:82058235:-|three_prime_utr|ENSG00000169718|control|control|control (ssRNA)
RNA: GGGAGUUCUACAGUCCGACGAUCUUGGGGCCAGUGGGGGCUUCUGAACAACAGGAUACAUCUAAAUGAAGGCAGCAUCUGGGUAGACAAAAGUGGGGGCUUAGGUCCCCUCCCCACCUCCCCUAGGCGCCUCCAUAGGCAAGUCAACAGAGGAUUGAGCAUCA
B9: chr2:216674409:216674600:-|3pUTR|ENSG00000115461|msi1|total|mutant (ssRNA)
RNA: GGGAGUUCUACAGUCCGACGAUCUCAUGGCAUGACACAGCGGAGACCGCCUCCAACAACGAAUUUGGGGCUACGAAGAGGAACCGCGAAAAAGCAAAUCUGUUUCAACUGAUGGGAACCCUACCGCUACCGAACUUGGGGGCUCAACAGAGGAUUGAGCAUCA
B10: ENSG00000088387:stop:overlap|stop_codon|ENSG00000088387|stop_codon|NA|stop_codon (ssRNA)
RNA: GGGAGUUCUACAGUCCGACGAUCACGCUCCAUGCUCUUGUGGGCUUCUCUCCACCAUCACUCUGAAAGUGUCUUGGAGCCAAUAGUUGGUGAACGUGUCACACUUGUGUGGUAGGACCUUGAAGUCUAAGUUGCUUUCCUGAGCAACAGAGGAUUGAGCAUCA
B11: chr1:228494639:228494729:+|3pUTR|ENSG00000168159|msi1_unk|total|mutant (ssRNA)
RNA: GGGAGUUCUACAGUCCGACGAUCGCCAUCGUGUCUCAUCUUGCUGUUAUCUCCCGCUCUUUCCCUCCUCCCAUUUCCUUCCGCCGUUGAAUUUUGCAAAGCUUGCCGCAGCCGCUCAGUUGCCUGCAGCAUCCUUGUGUGCCGCAACAGAGGAUUGAGCAUCA
B12: chr10:99879964:99880065:-|CDS|ENSG00000107554|unk|FALSE|bound_elsewhere (ssRNA)
RNA: GGGAGUUCUACAGUCCGACGAUCCAGAUGCCCUUCAGACCCAGACUCCACCUCCCAGCCAAGGUCAGGGGACUCUGCAGAUGUAGCUAGAGAUGUAAAGCAACCCACUGCCACGCCGAGGAGCUACCGGAACUUCAGGCAUCCCAACAGAGGAUUGAGCAUCA
B13: chr2:206003504:206003605:-|3pUTR|ENSG00000114933|msi1|FALSE|unique (ssRNA)
RNA: GGGAGUUCUACAGUCCGACGAUCGGUCGUGUGAGUAGCACAACCUUUUUCUGCUAAAAGUUAGCCCAAGAAGAAACAGAACAUAGAAAGCUUGGAUUCCCGUCAGUGAGGUAGGGAUGUCCUAAAAAGCUUGCCUGGGAUGACCAACAGAGGAUUGAGCAUCA
B14: chr11:35726083:35726184:+|CDS|ENSG00000166326|msi1|FALSE|bound_elsewhere (ssRNA)
RNA: GGGAGUUCUACAGUCCGACGAUCGAGGCAAUGGCCACAGCUCAUGUGACUGAGAUACUGGCAGACAUCCAAUCCCACAUGGAUAGGUUGAUGACUCAGAUGGCCCAAGCCAAGGAACAACUUGAUACCUCUAAUGAAUCAGCUCAACAGAGGAUUGAGCAUCA
B15: ENSG00000124766:be:win_801|CDS|ENSG00000124766|bound_else_gene|NA|bound_elsewhere_windowed (ssRNA)
RNA: GGGAGUUCUACAGUCCGACGAUCCUCGGCCUCCGCCUCCUCGGCAGCCUCGGCCUCCGCAGCGCUCGCGGCCCCGGGCAAGCACCUGGCGGAGAAGAAGGUGAAGCGCGUCUACCUGUUCGGCGGCCUGGGCACGUCGUCGUCCAACAGAGGAUUGAGCAUCA
B16: chr1:109011400:109011505:-|CDS|ENSG00000085433|unk|FALSE|unique (ssRNA)
RNA: GGGAGUUCUACAGUCCGACGAUCGUCAUGGUUGCAGAAUUCAUCCCUGCUGAUAGGAAGCUAAGUGAAGCUGGUUUUAAGGCUAGUAACAAUCGUUUAUUUCAGCUUGUAAUGAAAGGCCUGCUUUAUGAAUGCUGUGUAGAACAACAGAGGAUUGAGCAUCA
B17: chr1:54031757:54031935:-|3pUTR|ENSG00000116209|msi1|total|mutant (ssRNA)
RNA: GGGAGUUCUACAGUCCGACGAUCUCCGCUAUGAGCUGAUCAUUGCUCCUUCUCACCUCCUGCCAUGAUACUGUCAGUUACCUCCGUUAACAAGCUGAAUAUUCCGCCGAAAUGAUGCUUCUGCUCAGGAAUGGCCCACAAAUCCAACAGAGGAUUGAGCAUCA
B18: ENSG00000070961:be:win_4151|3pUTR|ENSG00000070961|bound_else_gene|NA|bound_elsewhere_windowed (ssRNA)
RNA: GGGAGUUCUACAGUCCGACGAUCGAUGGGAAGCUUCCUUAUAACUGAUGCAGAGAAAAAUUAGUCCUUCAAAUACUGCUGUAUUUUCAGGAAAAAAAAAAAAAGGGGUGUUUCUAUUGAAACUGUACUAAAUUUUUGCCUACACAACAGAGGAUUGAGCAUCA
B19: chr3:183812448:183812549:+|3pUTR|ENSG00000163872|msi1|FALSE|unique (ssRNA)
RNA: GGGAGUUCUACAGUCCGACGAUCUAUUGCAGGUAUCACAGCCUAAAGAAAUUAUCUUUUUGCAAAAGAAAUAUUAAAUGAUUUAGCAGUCUCCACGUGUGUUAAUGUUUCAAACGUGUAUCAUAAUGUGUAUAAUUGUGUAACCAACAGAGGAUUGAGCAUCA
B20: chr3:124966548:124966651:-|3pUTR|ENSG00000173706|unk|FALSE|bound_elsewhere (ssRNA)
RNA: GGGAGUUCUACAGUCCGACGAUCAGGAAGAAUGCAAAGUUCAGUAUUUCAAUACUUUGUAUUUUACUUGAAAUUACCCUUAGUAGCAUCUUUUUUUUCCUGUCUGAAAGCUUUUGUGUGGAUGAGAAGGGACAUUUCAUUUCCCAACAGAGGAUUGAGCAUCA
B21: chr3:196782704:196782805:+|CDS|ENSG00000180370|unk|FALSE|bound_elsewhere (ssRNA)
RNA: GGGAGUUCUACAGUCCGACGAUCAACGGAGAACUGGAAGAUAAGCCUCCAGCACCUCCUGUGCGAAUGAGCAGCACCAUCUUUAGCACUGGAGGCAAAGACCCUUUGUCAGCCAAUCACAGUUUGAAACCUUUGCCCUCUGUUCAACAGAGGAUUGAGCAUCA
B22: chr13:52643008:52643109:+|CDS|ENSG00000139675|unk|FALSE|unique (ssRNA)
RNA: GGGAGUUCUACAGUCCGACGAUCCAUACUGUGAAGGGCCACAACUGUGAAGUUAGAAAAGCCCUGCCAAAGCAAGAGAUGGCUAGUGCUUCAUCCAGCCAAAGAGGUCGAAGGGGUUCUGGAAACUUUGGUGGUGGUCGUGGACAACAGAGGAUUGAGCAUCA

The experiment concerns the target T1, UNK ZnF1-6 (called full-length). The experiment can be described thus: nsRBNS (natural sequence RNA bind-n-seq); RBNS binding buffer (assumed for nsRBNS): 25 mM Tris pH 7.5, 150 mM KCl, 3 mM MgCl2, 0.01% Triton X-100, 500 ug/ml BSA, 20 U/ml SUPERase-In, 4 C; UNK is unkempt and MSI1 is Musashi-1; names of the RNAs are library labels; protein concentration not given here; high values mean tight binding.
In turn, B1 came in with a binding signal of 0.758 enrichment R.

In turn, B2 returned a binding signal of 0.782 enrichment R.

Molecule B3 displayed a binding signal of 0.279 enrichment R.

B4 displayed a binding signal of 0.759 enrichment R.

As to B5, the binding signal was 0.294 enrichment R.

B6 came in with a binding signal of 0.876 enrichment R.

B7: the binding signal amounted to 0.575 enrichment R.

On to B8, for which the binding signal came out at 0.741 enrichment R.

B9 came in with a binding signal of 0.654 enrichment R.

As to B10, the binding signal worked out at 0.367 enrichment R.

For the molecule B11, the binding signal came to 0.921 enrichment R.

Take B12: the binding signal is 1.07 enrichment R.

B13 displayed a binding signal of 0.498 enrichment R.

B14 displayed a binding signal of 0.521 enrichment R.

Regarding B15, the binding signal was determined as 0.655 enrichment R.

Take B16: the binding signal turned out to be 0.864 enrichment R.

In the case of B17, the binding signal came out at 0.515 enrichment R.

Turning to B18, the binding signal came out at 0.824 enrichment R.

In turn, B19 returned a binding signal of 0.561 enrichment R.

Take B20: the binding signal turned out to be 1.1 enrichment R.

B21: the binding signal came to 0.553 enrichment R.

B22 came in with a binding signal of 0.654 enrichment R.
